{"source": "PubChem BioAssay AID1508642", "about": "(National Center for Advancing Translational Sciences (NCATS), 2021)", "note": "Hit rate of the full screen: of about 43,000 compounds, about 200 (0.47%) were called active. About 12% were inconclusive and are not listed. Calls come from the whole dose curve; as a rule, active = well fitted cell-killing curve with a large enough effect; inconclusive = small, poorly fitted or top-dose-only effect, or effect the other way; inactive = flat fitted curve, though single readings scatter. The list shows a part of the results. % is set by controls: 0 for no effect and ±100 for the full control effect.", "data": [{"assay": "Cell viability qHTS assay in S16 Pmp22-F2sN cells; note: nearly all actives have a fitted effect of over 65% in size", "conditions": "S16 Pmp22-F2sN Schwann cells viability, CellTiter-Glo, 24 h; series mostly up to 57.5 µM; activity change, negative = cytotoxicity: at the top concentration", "procedure,_shortened": "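S16 Pmp22-F2sN Schwann cells (500-1,000/well) in phenol-red-free DMEM with 10% FBS received 23 nL compound by pin tool for 24 h at 37 °C. Viability was then read as CellTiter-Glo luminescence after 15 min at room temperature.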", "values": [{"smiles": "CCc1nn(C(C)C(=O)N2CCN(c3ccccc3)CC2)c(=O)c2cc3occc3n12", "note": "(stereo unspecified)", "activity change, negative = cytotoxicity": "inactive: 0.766%"}, {"smiles": "CCCN(CCC)C(=O)C(Cc1ccccc1)NS(=O)(=O)c1ccc2c(c1)c(=O)n(C)c(=O)n2C", "note": "(stereo unspecified)", "activity change, negative = cytotoxicity": "inactive: 16.2%"}, {"smiles": "Cn1c(=O)c2c(nc(Oc3ccccc3Cl)n2Cc2ccc(C#N)cc2)n(C)c1=O", "activity change, negative = cytotoxicity": "inactive: -4.11%"}, {"smiles": "Cc1ccc(CNC(=O)c2c(C)oc3ncnc(N4CCOCC4)c23)cc1", "activity change, negative = cytotoxicity": "inactive: 2.15%"}, {"smiles": "Cc1ccc(-n2nc(C)c(C(=O)O)c2-n2cccc2)cc1", "activity change, negative = cytotoxicity": "inactive: 8.08%"}, {"smiles": "COc1ccc(/C=C\\c2onc(C)c2S(=O)(=O)N2CCC(C(=O)Nc3cccc(OC)c3)CC2)cc1", "activity change, negative = cytotoxicity": "inactive: -24.6%"}, {"smiles": "Cc1ccc(S(=O)(=O)Nc2ccc3nc(-c4ccc(F)cc4)oc3c2)cc1", "activity change, negative = cytotoxicity": "inactive: -0.973%"}, {"smiles": "CCC(C)NC(=O)CCC(=O)N1Cc2ccccc2Oc2ncccc21", "note": "(stereo unspecified)", "activity change, negative = cytotoxicity": "inactive: 17.9%"}, {"smiles": "CC1=C(C(=O)N2CCN(c3ccccc3)CC2)C2(CCCCC2)OC1=O", "activity change, negative = cytotoxicity": "inactive: -2.59%"}, {"smiles": "COc1cc(NC(=O)Cn2c(=O)ccc3cc(S(=O)(=O)N4CCCC4)ccc32)cc(OC)c1", "activity change, negative = cytotoxicity": "inactive: -18%"}, {"smiles": "O=C(NCc1ccccc1)c1cc2ccc3cccnc3c2[nH]1", "activity change, negative = cytotoxicity": "inactive: -0.457%"}, {"smiles": "CCc1ccc(-n2c(=O)c3c4c(sc3n(CC(=O)c3ccc(Br)cc3)c2=O)CCC4)cc1", "activity change, negative = cytotoxicity": "inactive: 12.7%"}, {"smiles": "Cc1ccc(NC(=O)Cn2cc(S(=O)(=O)Cc3ccc(F)cc3)c3ccccc32)cc1Cl", "activity change, negative = cytotoxicity": "inactive: -16.1%"}, {"smiles": "CCOc1ccccc1C(=O)N(Cc1sccc1C)C1CCS(=O)(=O)C1", "note": "(stereo unspecified)", "activity change, negative = cytotoxicity": "inactive: -13.4%"}, {"smiles": "COc1ccc(-c2cc(C(F)(F)F)nc(SCC(=O)NCCc3ccccc3)n2)cc1", "activity change, negative = cytotoxicity": "inactive: -0.825%"}, {"smiles": "O=C(Nc1ccccc1)c1nc[nH]c1C(=O)O", "activity change, negative = cytotoxicity": "inactive: -0.162%"}, {"smiles": "COc1cc(OC)c(N(C)C(=O)c2c(C)oc3ncn(CC(C)C)c(=O)c23)cc1Cl", "activity change, negative = cytotoxicity": "inactive: 0.778%"}, {"smiles": "Cc1c(-c2ccccc2)nc2c(Cl)cccc2c1C(=O)OCC(=O)c1ccc(F)cc1", "activity change, negative = cytotoxicity": "inactive: 3.89%"}, {"smiles": "CCOC(=O)CSc1nc2cc3c(cc2c(=O)n1Cc1ccc(C(=O)NCCc2ccc(OC)c(OC)c2)cc1)OCO3", "activity change, negative = cytotoxicity": "inactive: 7.77%"}, {"smiles": "O=C(CSCc1cnn(-c2ccccc2)c1-n1cccc1)NCc1cccc(Cl)c1", "activity change, negative = cytotoxicity": "inactive: -17.3%"}, {"smiles": "CCCSc1ncc(Cl)c(C(=O)Nc2sc3c(c2C(=O)OC)CCCC3)n1", "activity change, negative = cytotoxicity": "inactive: 13.8%"}, {"smiles": "N#Cc1c(-n2ncnc2-c2ccc(F)cc2)sc2c1CCCCC2", "activity change, negative = cytotoxicity": "inactive: 2.4%"}, {"smiles": "COc1cccc(N2CC(NC(=O)c3cc(Cl)ccc3OC)CC2=O)c1", "note": "(stereo unspecified)", "activity change, negative = cytotoxicity": "inactive: 2.29%"}, {"smiles": "COc1ccc(OC)c(NS(=O)(=O)c2ccc(N3CCCCS3(=O)=O)cc2)c1", "activity change, negative = cytotoxicity": "inactive: -4.5%"}, {"smiles": "Cc1ccc(C(=O)N/C(=C\\c2ccc(Cl)cc2)C(=O)NC2CCCCC2)cc1", "activity change, negative = cytotoxicity": "inactive: 3.56%"}, {"smiles": "CCCNC(=O)C1CCC(Cn2c(=O)c3sccc3n(CC(=O)NCc3cccc(OC)c3OC)c2=O)CC1", "note": "(stereo unspecified)", "activity change, negative = cytotoxicity": "inactive: -1.8%"}]}]}
